Hit rate of the full screen: of about 330,000 compounds, about 80 (0.02%) were called active. Inconclusive means that the source gave no clear call. Such entries were picked first, then a sample of the others. Calls follow the shape of the dose curve; as a rule, active = well fitted activation curve with a large enough effect; inconclusive = small, poorly fitted or top-dose-only effect; inactive = flat fitted curve, though single readings scatter. No potency is given beside an inconclusive call; the fits are too rough.
What follows are compounds tested against Beta-2 adrenergic receptor (Homo sapiens) (UniProt P07550) (assay: qHTS assay of beta-arrestin-biased ligands of beta2-adrenergic receptor). Details: beta-arrestin recruitment to beta2AR, cell-based reporter; series mostly up to 46.1 µM; activation: at the top concentration.
Chain of UniProt P07550 (P07550 whole entry, looked up): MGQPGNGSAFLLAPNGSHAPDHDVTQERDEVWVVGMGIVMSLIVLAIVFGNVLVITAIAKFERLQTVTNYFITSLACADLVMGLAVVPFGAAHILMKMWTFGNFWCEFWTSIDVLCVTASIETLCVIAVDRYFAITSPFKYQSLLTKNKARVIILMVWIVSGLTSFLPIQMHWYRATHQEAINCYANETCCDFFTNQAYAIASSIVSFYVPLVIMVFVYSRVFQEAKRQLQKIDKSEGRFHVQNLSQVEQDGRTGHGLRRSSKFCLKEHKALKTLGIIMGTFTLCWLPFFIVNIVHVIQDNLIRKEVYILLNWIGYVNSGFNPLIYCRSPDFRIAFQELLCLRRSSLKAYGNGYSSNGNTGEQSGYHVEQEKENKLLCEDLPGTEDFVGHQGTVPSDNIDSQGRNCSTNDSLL
Summary of the method: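 Agonism was measured as beta-arrestin recruitment to recombinant beta2-AR, releasing tTA to drive luciferase. Cells were exposed for 18 hr at 37 degrees C to a series up to 46 microM. %Activity from corrected luminescence gave concentration-response curves.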
Also: nearly all actives have a fitted effect of over 65% in size.
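For activation in this document: 0% = DMSO controls and full agonism = EC100 isoproterenol or metaproterenol.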
Potency is read from the fitted curve at half-maximal effect; tags tell the direction and shape of the fitted curve.

| SMILES | Potency | activation |
| --- | --- | --- |
| O=C(COc1ccccc1[N+](=O)[O-])N/N=C/C=C/c1ccco1 | inconclusive [rising, single point] | – |
| Cc1cccc(N=Nc2c(C)[nH]n(C(N)=S)c2=O)c1C | inconclusive [activator, full curve] | – |
| Cc1ccc2nc(N3C(=O)CNC3=S)sc2c1 | inconclusive [rising, single point] | – |
| Cc1cnc(-c2nnc(N(C)C(=O)C3CCCO3)s2)cn1 (stereo not drawn) | – | inactive: 0.0671% |
| CCn1c(SCC(=O)NC2CC2)nnc1C(C)Oc1ccccc1 (stereo not drawn) | inconclusive [rising, single point] | – |
| CC(=O)Nc1ccc(NC(=O)C/C(C)=N/NC(N)=S)cc1 | inconclusive [rising, single point] | – |
| Cn1c(=O)c2c(O)c(Cc3ccccc3)c(=O)[nH]c2n(C)c1=O | – | inactive: -0.0446% |
| Cc1cc(C)c(C)c(OC(=O)c2sc(Cl)nc2C)c1 | inconclusive [rising, single point] | – |
| CN(C)CCNC(=O)c1[nH]nc2c1CCc1ccccc1-2 | inconclusive [rising, single point] | – |
| COc1ccc(CCC(N)=O)cc1OC | – | inactive: -0.423% |
| COc1ccc(OC)c(NC(=O)COC(=O)CCc2nc3ccccc3c(=O)[nH]2)c1 | inconclusive [rising, single point] | – |
| CCOc1cccc(N)c1 | active: 16.4 µM | – |
| COc1ccccc1NS(=O)(=O)c1cc(NC(=O)CNC(=O)c2ccc(C)s2)ccc1Cl | inconclusive [rising, single point] | – |
| C/C(CC1CC(C)(C)OC1=O)=N\NC(N)=S (stereo not drawn) | inconclusive [rising, single point] | – |
| CC1CCN(C(=O)c2ccc(N3CCOCC3)c([N+](=O)[O-])c2)CC1 | inconclusive [rising, single point] | – |
| CCc1ccc(CNc2ccc(O)cc2)cc1 | inconclusive [activator, full curve] | – |
| COc1ccc(CCC(C)NCC2CCCCC2)cc1 (stereo not drawn) | inconclusive [rising, single point] | – |
| Cc1ccc(C(C)NC(=S)NCc2ccc(F)cc2)c(C)c1 (stereo not drawn) | inconclusive [rising, single point] | – |
| c1ccc(CCNc2nc(-c3ccccn3)cs2)cc1 | inconclusive [rising, single point] | – |
| CCOc1ccc2nc(NC(=S)N(C)C)sc2c1 | inconclusive [rising, single point] | – |
| COc1ccc(CN(CCC#N)C(=S)NC(=O)c2ccccc2)cc1 | inconclusive [rising, single point] | – |
| Cc1ccccc1NS(=O)(=O)c1ccc2oc(=O)ccc2c1 | inconclusive [rising, single point] | – |
| Cc1ccc(S(=O)(=O)NC(=O)c2ccc(Br)o2)cc1 | – | inactive: -2.54% |
| CCOC(=O)c1cnc(-n2nc(C)cc2C)nc1N(C)C | inconclusive [rising, single point] | – |
| C/C(=N\NC(=S)NC1CCCCC1)c1ccc(OC(F)F)cc1OC(F)F | inconclusive [rising, single point] | – |

| SMILES | Potency | activation |
| --- | --- | --- |
| O=C(N/N=C/C=C\c1ccco1)c1cccs1 | inconclusive [rising, single point] | – |
| CN(CC(O)CON=C1c2ccccc2-c2ccccc21)S(=O)(=O)c1ccc(Br)cc1 (stereo not drawn) | – | inactive: -0.0738% |
| COc1ccc(/C(C)=N/NC(=S)Nc2cc(C)ccc2C)cc1 | inconclusive [rising, single point] | – |
| COc1ccc(C2CC(c3ccccc3)n3nnnc3N2)cc1 (stereo not drawn) | – | inactive: 0.022% |
| CC(C)(C)N/N=C/c1c(O)n(-c2ccc(Cl)cn2)c(=O)c2ccccc12 | inconclusive [rising, single point] | – |
| CC1(C)C(c2cccs2)=[N+]([O-])C2(CCCCC/C2=N\NC(N)=S)N1O (stereo not drawn) | inconclusive [rising, single point] | – |
| CCOc1ccc(CCNC(=O)COC(=O)c2ccc3c(c2)OCCO3)cc1OCC | – | inactive: 0.319% |
| S=C(N/N=C/c1ccco1)NC1CC2CCC1C2 (stereo not drawn) | inconclusive [rising, single point] | – |
| CC(=O)/C=C/n1c(=S)oc2ccccc21 | inconclusive [rising, single point] | – |
| CC(=O)Nc1ccc(Nc2cc(C)nc3c(-c4ccccc4)c(C)nn23)cc1 | inconclusive [rising, single point] | – |
| Cc1cc2nc(/C(C#N)=C\c3ccc(-c4ccccc4C(=O)O)o3)[nH]c2cc1C | – | inactive: -1.06% |
| Cc1ccccc1Nc1ncnc2c1cnn2C | – | inactive: -0.0292% |
| CCOc1ccc(N(CC(=O)Nc2cccnc2)S(=O)(=O)c2ccc(C)cc2)cc1 | inconclusive [rising, single point] | – |
| O=C(COC(=O)c1ccc(O)cc1)Nc1ccccc1[N+](=O)[O-] | – | inactive: 2.61% |
| O=C(COc1ccc(Cl)cc1Cl)NNC(=S)NC(=O)c1ccco1 | – | inactive: -0.684% |
| O=C(c1cccs1)N1N=C(c2ccccc2)CC1c1ccc(O)cc1 (stereo not drawn) | inconclusive [rising, single point] | – |
| COCCN(C(=S)Nc1ccc(C)cc1C)C(C)c1ccco1 (stereo not drawn) | – | inactive: -0.77% |
| CN(CCOc1ccccc1)CC(=O)Nc1cc([N+](=O)[O-])ccc1Cl | – | inactive: 0.261% |
| CC(=O)NC(c1ccccc1)c1cc(Cl)c2cccnc2c1O (stereo not drawn) | inconclusive [rising, single point] | – |
| CCC(=O)NC(C)c1nc2ccccc2n1C (stereo not drawn) | inconclusive [rising, single point] | – |
| COc1cc(CNc2ccc(O)cc2)cc(Br)c1OCc1ccccc1 | inconclusive [activator, partial curve] | – |
| N#C/C(=C\c1ccc(Cl)cc1)c1nc2ccccc2o1 | inconclusive [rising, single point] | – |
| COCCNC(=S)N/N=C(\C)c1ccc(Cl)c(Cl)c1Cl | inconclusive [rising, single point] | – |
| CCCCn1c(N)c(C(=S)NC(=O)CC(C)C)c(=O)n(C)c1=O | – | inactive: -0.674% |
| Cc1ccc(N=Nc2c(C)[nH]n(C(N)=S)c2=O)cc1 | inconclusive [activator, full curve] | – |

| SMILES | Potency | activation |
| --- | --- | --- |
| CCOc1cc(/C=N/NC(=O)c2ccncc2)ccc1OC(=O)c1ccccc1 | – | inactive: -0.983% |
| C/C(=N\NC(=S)NCc1ccccc1)C1CCCCC1 | inconclusive [rising, single point] | – |
| CCN(Cc1ccncc1)Cc1c(O)ccc2cc(Br)ccc12 | – | inactive: -0.0751% |
| Cc1cc(C(=O)CN2C(=O)NC3(CCCc4ccccc43)C2=O)c(C)n1C (stereo not drawn) | inconclusive [rising, single point] | – |
| Cc1nnc(N/N=C/C2CC=CCC2)[nH]c1=O (stereo not drawn) | inconclusive [rising, single point] | – |
| O=C(Cn1c(=O)c2c(ncn2Cc2ccccc2)n(Cc2ccccc2)c1=O)NC1CC1 | – | inactive: -0.0843% |
| NC(=S)N/N=C/c1ccc(C23CC4CC(CC(C4)C2)C3)cc1 | inconclusive [rising, partial curve, poor fit] | – |
| O=C(N/N=C/c1ccc(OC(=O)c2ccccc2)c([N+](=O)[O-])c1)c1ccc(O)cc1 | inconclusive [rising, single point] | – |
| N#C/C(=C\c1ccncc1)c1nc2ccccc2o1 | inconclusive [rising, single point] | – |
| O=C1CN(c2nc(-c3cccnc3)nc3sc4c(c23)CCCC4)CCN1 | – | inactive: -0.293% |
| Oc1ccc(NCc2cccc(OCc3ccccc3)c2)cc1 | inconclusive [activator, full curve] | – |
| CCn1c(=O)cc(OCC(=O)N2CCN(c3cccc(C(F)(F)F)c3)CC2)c2ccccc21 | inconclusive [rising, single point] | – |
| O=[N+]([O-])c1ccc2nc(-c3ccccn3)[nH]c2c1 | inconclusive [activator, partial curve] | – |
| COc1c2ccoc2c(OC[C@@H](O)C(C)(C)OC)c2oc(=O)ccc12 | inconclusive [rising, single point] | – |
| Cc1ccc(NC(=S)NC(=O)C2CC2)cc1Cl | inconclusive [rising, single point] | – |
| COCCNC(=S)N/N=C(\C)c1cccc(OC)c1 | inconclusive [rising, single point] | – |
| NC(=O)c1ccc(N=Cc2ccc([N+](=O)[O-])s2)cc1 | inconclusive [rising, single point] | – |
| c1ccc2c(CNc3ccc(CNc4ncn[nH]4)cc3)cccc2c1 | inconclusive [rising, single point] | – |
| Cc1ccc2cccc(SCC(=O)N3CCOCC3)c2n1 | inconclusive [rising, single point] | – |
| CC(=O)O[C@H]1CC(C)(C)C(=C=C/C(C)=C/C=C/C(C)=C/C=C/C=C(C)/C=C/C=C(\C)C(=O)C[C@@]23O[C@]2(C)C[C@@H](O)CC3(C)C)[C@](C)(O)C1 | inconclusive [rising, single point] | – |
| COC(=O)C1C/C(=N\NS(=O)(=O)c2ccc(C)cc2)c2ccccc2C1 (stereo not drawn) | inconclusive [rising, single point] | – |
| CC(N=Cc1cccc(O)c1O)c1ccccc1 (stereo not drawn) | inconclusive [activator, full curve] | – |
| CN(C)C(=O)CSc1cccc2cccnc12 | inconclusive [rising, single point] | – |
